For orientation: Kd means the concentration at which binding is half-saturated. A low value points to higher affinity. In general, koff refers to the first-order rate constant of dissociation. The low end stands for a long-lived complex, the high end for a short-lived complex. Usually kon stands for the rate constant with which the complex forms. Lower therefore signals slower complex formation.

This is an account of results in patent US20240279318A1 (NANJING LEGEND BIOTECH, published 2024).

For the assay, the target named is T1, AFP158/HLA-A*02:01 complex (human).
T1 construct: biotinylated on the BSP by BirA for ELISA and panning; also called biotinylated AFP158/HLA-A*02:01 complex; Bio-AFP158
The assay can be described thus: SPR, scFv-mIgG2aFc from supernatant captured, complex as analyte. (SPR reads the build-up and loss of mass on a sensor chip optically.)

B1: AS190259 VL1VH1g1 scFv-mIgG2aFc (Fc fusion, not shown: a dimerising Fc or GST; small tags and cut ends)
scFv: SSELTQDPAVSVALGQTVRITCQGGGYYVNWYQQKPGQAPVLVIYLNTNRPSGIPDRFSGSSSGNTASLTITGAQAEDEADYYCQSADSSGNSAVFGGGTKLTVLGGGGSGGGGSGGGGS[left out - about 100 residues]AASGYGGSWWGDATLDAWGQGTLVTVSS
As to B1, binding was put at a Kd of 560 nM, the koff was 0.41 s⁻¹ and the kon was determined as 730000 M⁻¹ s⁻¹.

B2: AS190259 VL2VH1g1 scFv-mIgG2aFc (Fc fusion, not shown: a dimerising Fc or GST; small tags and cut ends)
scFv: SSELTQDPAVSVALGQTVTITCQGGGYYVNWYQQKPGQAPVLVIYLNTNRPSGIPDRFSGSSSGNTASLTITGAQAEDEAAYYCQSADSSGNSAVFGGGTKLTVLGGGGSGGGGSGGGGS[left out - about 100 residues]AASGYGGSWWGDATLDAWGQGTLVTVSS
For B2, the Kd was determined as 340 nM, the koff came out at 0.31 s⁻¹ and the kon came to 900000 M⁻¹ s⁻¹.
